# This is one part of the list. Viral Rep nickase domains cut single-stranded DNA in vitro for 1 h at 37 °C with 3 µM enzyme; only the middle of the 90-letter strands is printed. A value is the log2 ratio of uncut reads to the pool without enzyme; the lower, the more was cut; hits are not called. The scaling is to total reads, so uncut sequences can rise above 0 when many others are cut.
# Experiments:
# Assay in all cases: uncleaved DNA left, log2 of reads against the no-enzyme library (log2 ratio); higher = less cleavage (more negative = more Rep cleavage of the k-mer); sequences stand for … in CTCGTCCG…ACCGGAGA
# [1] = tested on: T1, Rep nickase domain of Muscovy duck circovirus
# T1 sequence (Rep 1-111, printed without the tag): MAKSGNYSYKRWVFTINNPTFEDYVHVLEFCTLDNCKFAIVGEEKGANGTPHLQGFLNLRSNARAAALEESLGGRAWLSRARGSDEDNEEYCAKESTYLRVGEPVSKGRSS
# Protocol: (§1)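 A pool of 90-nt single-stranded DNAs with seven random bases just before the constant AC of the nick site (name = the seven bases) was cut by 3 µM recombinant His6-SUMO-tagged Rep nickase domain (300 nM DNA, 50 mM HEPES pH 8.0, 50 mM NaCl, 1 mM MnCl2, 1 h, 37 °C, three replicates). Uncut DNA was amplified and sequenced.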
# [2] = tested on: T2, Rep nickase domain of banana bunchy top virus
# T2 sequence (Rep 1-94, printed without the tag): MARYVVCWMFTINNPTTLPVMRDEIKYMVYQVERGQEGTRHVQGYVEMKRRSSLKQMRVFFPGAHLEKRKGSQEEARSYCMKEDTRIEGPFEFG
# Protocol: as §1
# [3] = tested on: T3, Rep nickase domain of cabbage leaf curl virus
# T3 sequence (Rep 1-116, printed without the tag): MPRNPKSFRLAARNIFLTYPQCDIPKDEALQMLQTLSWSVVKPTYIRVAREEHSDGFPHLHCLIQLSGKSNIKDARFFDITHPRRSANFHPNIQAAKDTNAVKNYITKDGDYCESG
# Protocol: as §1
# [4] = tested on: T4, Rep nickase domain of chickpea chlorotic dwarf virus
# T4 sequence (Rep 1-124, printed without the tag): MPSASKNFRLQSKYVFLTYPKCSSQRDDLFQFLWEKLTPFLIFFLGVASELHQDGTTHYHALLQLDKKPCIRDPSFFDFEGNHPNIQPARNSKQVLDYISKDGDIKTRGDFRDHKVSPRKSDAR
# Protocol: as §1
# [5] = tested on: T5, Rep nickase domain of faba bean necrotic yellows virus
# T5 sequence (Rep 1-98, printed without the tag): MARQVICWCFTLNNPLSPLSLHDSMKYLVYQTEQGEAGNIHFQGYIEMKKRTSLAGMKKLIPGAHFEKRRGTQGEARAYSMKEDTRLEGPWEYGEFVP
# Protocol: as §1
# [6] = tested on: T6, Rep nickase domain of maize striate mosaic virus
# T6 sequence (Rep 1-117, printed without the tag): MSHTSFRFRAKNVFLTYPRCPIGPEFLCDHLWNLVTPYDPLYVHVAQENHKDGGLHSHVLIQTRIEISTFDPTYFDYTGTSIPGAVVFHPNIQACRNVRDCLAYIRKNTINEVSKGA
# Protocol: as §1
# [7] = tested on: T7, Rep nickase domain of porcine circovirus 2
# T7 sequence (Rep 2-116, printed without the tag): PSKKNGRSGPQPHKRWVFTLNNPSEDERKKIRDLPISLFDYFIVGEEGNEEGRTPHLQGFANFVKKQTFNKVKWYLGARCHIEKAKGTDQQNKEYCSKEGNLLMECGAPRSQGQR
# Protocol: as §1
# [8] = tested on: T8, Rep nickase domain of tomato golden mosaic virus
# T8 sequence (Rep 1-124, printed without the tag): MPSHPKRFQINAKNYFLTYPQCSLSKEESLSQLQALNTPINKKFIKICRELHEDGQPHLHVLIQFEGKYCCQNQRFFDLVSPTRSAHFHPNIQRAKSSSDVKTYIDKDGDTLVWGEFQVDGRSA
# Protocol: as §1
# [9] = tested on: T9, Rep nickase domain of tomato yellow leaf curl virus
# T9 sequence (Rep 1-136, printed without the tag): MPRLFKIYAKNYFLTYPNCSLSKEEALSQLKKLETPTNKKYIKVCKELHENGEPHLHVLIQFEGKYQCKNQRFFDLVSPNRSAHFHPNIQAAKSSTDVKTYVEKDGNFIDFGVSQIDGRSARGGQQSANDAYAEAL
# Protocol: as §1
# [10] = tested on: T10, Rep nickase domain of wheat dwarf virus
# T10 sequence (Rep 1-137, printed without the tag): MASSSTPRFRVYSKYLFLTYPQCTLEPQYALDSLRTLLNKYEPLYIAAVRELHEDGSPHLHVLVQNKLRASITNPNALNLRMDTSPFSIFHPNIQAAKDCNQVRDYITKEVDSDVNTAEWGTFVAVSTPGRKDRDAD
# Protocol: as §1
Sequence,uncleaved DNA left (log2) [1],uncleaved DNA left (log2) [2],uncleaved DNA left (log2) [3],uncleaved DNA left (log2) [4],uncleaved DNA left (log2) [5],uncleaved DNA left (log2) [6],uncleaved DNA left (log2) [7],uncleaved DNA left (log2) [8],uncleaved DNA left (log2) [9],uncleaved DNA left (log2) [10]
CCCCTGA,0.121,0.034,0.0411,-0.217,0.00835,-0.395,-0.0706,-0.0326,-0.103,0.0542
CCTACTG,-0.177,-0.156,-0.172,-0.172,-0.0736,0.765,-0.0185,-0.285,-0.229,-0.0288
ACTTAAA,-0.133,0.0614,-0.197,-0.145,-0.0595,-0.805,0.0284,-0.0381,-0.194,0.00821
CAAGTTC,0.0279,-0.0933,0.0717,-1.65,0.0151,-0.664,0.024,-0.118,-0.069,-0.128
CTTTATC,0.141,-0.0476,0.0556,0.0752,-0.0539,-0.584,-0.245,-0.11,0.0679,0.0967
GAAAGCG,0.031,-0.0663,-0.717,0.533,0.0025,-0.516,0.166,-0.00673,0.0594,-0.146
GACGACC,-0.0287,0.0864,0.127,0.586,-0.0418,0.331,-0.0986,-0.0393,0.0818,0.015
GTCGGAC,0.0812,0.222,0.913,2,0.0288,2.29,0.339,0.267,0.18,0.311
ATAACTC,-0.0309,0.0368,-0.264,-1.39,-0.0624,-0.772,0.0565,-0.105,-0.0744,-0.0712
CTACGAG,0.0958,0.0364,-0.00516,-0.249,0.0237,-0.634,0.169,0.127,0.0387,0.0194
CCGCAGG,-0.0188,-0.116,0.125,0.366,-0.00191,-0.0665,0.063,-0.0527,-0.0869,-0.18
GGGCAAC,0.00174,-0.0047,0.865,1.83,-0.0639,2.16,0.0378,0.0102,0.00359,0.15
GTAATTA,-0.102,0.0124,0.182,0.757,-0.0601,1.52,-0.0169,0.045,0.0466,-0.0548
GCAAGGC,0.0774,0.132,0.00921,0.313,0.0761,-0.623,0.212,0.0145,0.0912,0.0758
ATATCAT,-0.164,0.11,0.173,-0.501,-0.0151,-0.249,-0.467,0.117,0.066,0.0999
GCTAGTC,0.00465,0.151,0.213,0.6,0.106,0.119,0.132,0.141,0.105,0.0352
AGAGGTG,-0.0561,0.068,-0.108,0.217,0.0497,0.00593,0.0823,0.0318,-0.0805,0.0325
CACCGTC,-0.0576,-0.173,-0.147,-0.498,-0.164,-0.762,-0.0422,-0.137,-0.275,-0.0598
TAGGGCA,0.0408,0.0987,0.548,0.825,0.114,1.17,0.0879,0.104,0.038,0.0731
CTCAGGG,-0.0815,-0.0339,-0.133,0.208,-0.195,-0.428,0.11,-0.0581,-0.00881,0.0125

Sequence,uncleaved DNA left (log2) [1],uncleaved DNA left (log2) [2],uncleaved DNA left (log2) [3],uncleaved DNA left (log2) [4],uncleaved DNA left (log2) [5],uncleaved DNA left (log2) [6],uncleaved DNA left (log2) [7],uncleaved DNA left (log2) [8],uncleaved DNA left (log2) [9],uncleaved DNA left (log2) [10]
AAATCAT,-0.836,0.164,-3.39,-2.96,0.0897,-1.23,-3.37,-1.44,0.00138,-1.96
TTAGTGG,0.086,0.0632,0.359,0.643,0.0891,0.537,0.145,0.115,-0.0105,0.099
TAGGGGG,0.113,0.0118,0.174,0.0652,0.0945,-0.162,0.299,0.192,0.0973,0.081
ACGCTCG,-0.0375,0.196,-0.707,-0.0266,0.0237,-0.777,0.171,-0.000252,-0.0491,0.0154
TGTTTTC,-0.0222,-0.128,0.372,0.601,-0.0637,1.03,-0.00138,-0.0534,0.0443,-0.00626
CTCTCCG,-0.0173,-0.0752,-0.829,-0.0884,-0.0813,-0.827,0.157,-0.0719,-0.00742,-0.0965
TTTGGTG,-0.0356,-0.194,-0.659,-0.727,0.0412,-1.14,0.0556,-0.148,-0.0174,-0.198
AGACCTA,0.0925,0.057,0.457,0.824,0.0335,1.63,-0.0234,0.00222,0.097,0.0214
ACCACCG,-0.0429,0.0455,-0.683,0.427,-0.0911,-0.301,0.0137,-0.0275,0.0331,-0.113
ATAAAAC,0.0175,-0.0218,-0.0807,-0.868,-0.0374,-0.798,0.09,0.0795,-0.0133,0.0052
GGTACCA,0.00331,0.0808,0.363,1,-0.0499,1.46,0.0367,-0.0757,0.0307,0.142
ATACCGA,0.0123,-0.0244,-0.402,-0.624,-0.0313,-1.05,0.0234,-0.0544,-0.11,-0.0912
ACTCAAA,0.0841,0.129,-0.0813,0.0223,0.0589,-0.562,0.133,0.159,-0.0305,-0.0528
GAGAGAT,-0.0464,0.0754,0.516,1.74,0.0645,2.01,-0.566,0.103,0.0342,0.0926
ACGCACG,-0.0025,-0.0308,-0.69,0.0407,-0.0363,-0.796,0.207,-0.0167,0.0015,0.0577
AAATCCG,0.117,0.0505,-0.804,0.231,0.151,-0.964,0.285,0.063,0.0854,-0.0321
CCAGTAA,0.0112,-0.022,0.0237,-0.363,0.0564,-0.5,0.0101,0.145,-0.109,0.0758
GGGATGA,0.159,0.172,0.939,2.15,0.0362,2.3,0.262,0.13,0.0345,0.149
CTCCGAA,0.0198,0.0889,0.306,0.406,0.103,-0.0122,0.194,0.0606,0.163,0.203
ATCGGTC,0.128,0.0371,0.0605,0.141,0.0535,-0.378,0.153,-0.0462,0.0491,0.0317

Sequence,uncleaved DNA left (log2) [1],uncleaved DNA left (log2) [2],uncleaved DNA left (log2) [3],uncleaved DNA left (log2) [4],uncleaved DNA left (log2) [5],uncleaved DNA left (log2) [6],uncleaved DNA left (log2) [7],uncleaved DNA left (log2) [8],uncleaved DNA left (log2) [9],uncleaved DNA left (log2) [10]
CAACATG,0.125,0.126,-0.471,-0.923,0.139,-1.03,0.0715,0.0157,0.14,-0.0933
TCGCCCG,0.0671,0.00105,-0.801,-0.647,-0.0527,-0.844,-0.245,-0.069,-0.0912,-0.188
GACATAC,0.0556,0.0585,0.608,1.35,0.0696,1.57,0.0971,-0.0187,0.0778,0.132
CGAGTGC,-0.0606,0.0353,-0.0357,0.528,-0.0458,0.818,0.136,-0.172,-0.0649,0.076
CGGGCAC,-0.0541,-0.0676,0.646,1.56,-0.152,1.9,0.0452,-0.146,-0.2,-0.0427
CCAGATG,0.0744,0.00913,0.258,1,0.0188,0.897,0.22,-0.107,-0.0922,-0.0425
CGTCTAC,0.0732,0.058,-0.032,-1.22,-0.0851,-0.201,0.0229,-0.0904,0.0669,-0.109
CCGCACC,-0.142,-0.178,-0.19,-0.416,-0.0606,-0.641,-0.185,-0.17,-0.154,-0.0606
ACGGAAG,0.0401,0.0666,-0.86,-0.322,0.0323,-1.1,0.126,0.0156,-0.0201,-0.188
CAAGTCA,-0.0161,0.112,-0.0706,-1.63,-0.0391,-0.618,-0.025,0.0138,0.109,-0.0403
AGCTGCC,-0.0101,-0.015,0.244,0.766,-0.0275,0.553,0.214,-0.086,-0.0983,0.0701
TACCCAT,0.0354,-0.0712,-1.04,-2.78,0.034,-0.767,-1.22,-0.0845,0.0836,0.057
TCCAACA,-0.011,-0.00205,-0.0759,-2.12,-0.0722,-0.35,-0.156,-0.015,-0.102,-0.000262
CGATGGC,0.123,0.121,-0.000675,0.239,0.00418,-0.502,0.234,0.0294,0.179,0.12
CTACTCT,-0.0486,-0.0945,-0.42,-2.78,-0.124,-0.712,-0.223,-0.0632,-0.0231,-0.124
TCCTAGG,-0.0697,-0.108,0.514,1.42,-0.122,1.69,0.0663,0.0449,-0.0519,-0.0149
GTGTGTC,0.0471,0.0612,0.267,0.832,-0.0715,1.83,0.00874,0.000272,-0.04,0.0513
ACTTTGC,0.0101,-0.00575,-0.505,-0.0719,0.0702,-0.799,0.139,-0.0829,0.0774,0.0572
TAAAAGA,0.0562,0.0599,-0.454,-2.2,0.127,-1.01,0.122,0.0209,-0.00648,-0.058
CCAAGGG,-0.159,0.0347,0.0117,0.561,-0.00243,-0.106,0.121,-0.0289,-0.0462,0.0469
